Test results published in the supplement of paper PMC3724861.
Some of the results follow.

The sequences below were run on T1, Caupolican (Caup) homeodomain DNA-binding domain (assay: PBM E-score (8-mer, recovered from the published 9-mer minima) (E-score (dimensionless, -0.5 to 0.5)); Drosophila protein; higher = stronger relative binding preference, active = 0.31 or more).
T1 sequence: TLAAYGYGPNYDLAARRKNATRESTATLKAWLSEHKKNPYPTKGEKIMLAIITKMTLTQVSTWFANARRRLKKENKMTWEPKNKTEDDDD
Summary of the method: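 Caup's homeodomain DNA-binding domain (residues 214-303) was produced by in vitro transcription and translation and applied at 100 nM to custom-designed protein binding microarrays. Each value is an enrichment score giving relative binding preference for a short DNA word; higher means stronger. Published 9-mer scores were the minimum of their two constituent 8-mer scores, and the 8-mer values were recovered from those minima. A cutoff of 0.31 marks candidate binding sequences.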

PBM E-score, ≥ 0.186:
ACATTCCA

PBM E-score, inactive:
GACCACCC -0.177
CCTCATGA -0.0319
TCACATCA 0.091
ACCTAGTC -0.0579
AGGGCTAT -0.117
GACTATGC 0.121
ATACGATA 0.186
GCCTGGCC -0.292
CCGGAGCC -0.227
ACCTTGAA 0.0522
CCTATCCA -0.0354
ACGTAAGT 0.0363
AAGCCTTG -0.0495
AGGGATGC -0.127
ACGAACTG 0.05
AAATTACG 0.0367
ATTTGTCG 0.169
ACTATGAC 0.113
AGGCACAT 0.00079
CACACACA 0.0556
AGAAGAAC 0.0735
CGCATGAA -0.0812
ATGGCAAA -0.0401
CTACACGA 0.295
AAACATCC 0.258
CTAACTAG 0.0978
CCCATCCC -0.212
CAGCAGAA -0.00767
GCGTCGAA -0.0998
CCTGCGAA -0.0125
AATGTCTG 0.142
AATCGAGG -0.117
CGCGATGA 0.0185
CTCCACAG -0.16
TCCCGTCA -0.0662
CCTGAAGA -0.118
GAACGACC -0.0823
AGCAGGGA -0.105
AAAACCGA -0.0262
ATGTACCC 0.263
ACAACCAG 0.249
TAAAACGA 0.0306
CAAGTGAG 0.0208
AATAGAGT -0.0101
TGCTTCAA 0.047
GGCTGCAA -0.119
CCACAGAG -0.0103
TCTATGAA 0.047
CCAAAACA 0.155
ATCCCAGA -0.124
ATGGTCAC -0.0348
AACCGGAC -0.0436
ACGGAAAA -0.0174
CGCGAGAG -0.201
CGTTAAGA 0.0227
CTCACAAC 0.0395
TAATCGGA 0.0419
AGTCACAT 0.12
TGTGGTAA 0.156
GAGATAAA 0.0669
ACCTCAGA -0.0211
AATGGATC 0.052
GAGATCCC -0.151
ACCGGCCA -0.177
AGGCCGCC -0.301
ATAGAGGA -0.0659
ATGTAGCG 0.222
AGGCAGTG -0.0632
ACCTCTCG -0.169
GTGGATAA 0.044
GAGGTCGA -0.115
AGGCCTTG -0.121
AAACAACG 0.21
AGGCTGGC -0.29
CGGCCCGC -0.215
CGGTAGAG -0.101
CGGTACAA 0.234
AGAATAAC 0.118
AAAATATC 0.0847
ACCTGAAC 0.0824
GCTGATCC -0.0755
AGTCCATG 0.0703
ATTGCCGC -0.0938
ATGGAGGG -0.0785
GGCTCCCA -0.285
CAACCACC -0.0558
TCACCCAA 0.0547
GCCGTCGA -0.167
CGTTCTAA 0.0188
AAGATGGG -0.134
TATATCAA 0.133
CCCATGCG -0.134
CGCCTAAA -0.117
AAGATTTA 0.0578
GCAGCTAC -0.0618
CTCTAAAA -0.0754
CAAGTTAG 0.15
AGTACGTC 0.0445
CACGCAGC -0.107
ATAGATCG -0.0377
AATACTTG 0.234
GATTTCGC 0.0128
CCGTTGTA 0.168
CCACGCGC -0.239
GAGTTTCA -0.012
CCCAAACA 0.175
CGCGATTA -0.0066
AATATCGC 0.0218
ATTGATCA 0.137
AGTGACCC -0.123
CCGCCACA -0.0608
CTTTTTCC -0.0824
ACACTCTC 0.13
AGCGAAAC 0.0322
GCATCTCC -0.185
GGTAGAAA -0.107
CGCCAACC -0.228
AACACGTC 0.299
AGGGTATC -0.045
AACAACCT 0.243
CAAACTAA 0.132
AAGGATTC -0.0347
GCTCAGCC -0.128
GGGACCAA -0.126
ACTTGCCC -0.0451
AATATACT 0.155
CCTTACAA 0.156
AGTAGTAG 0.111
GAGGGGCC -0.183
CTCCGCCA -0.244
TATGGTGA 0.00674

PBM E-score, ≥ -0.0837:
AGAAGCCT

PBM E-score, active:
TACACGAA 0.371
AATGTATC 0.314
AACATGAG 0.351
TCATGACA 0.313
CAATGTAA 0.312
GCGTGTAC 0.367

PBM E-score, ≥ 0.0345:
ATCCTCGA

PBM E-score, ≥ -0.0741:
ACCTGCCA

PBM E-score, ≥ 0.0422:
AGGTCAGC

PBM E-score, ≥ 0.172:
AGATATAT

PBM E-score, ≥ 0.198:
ATTAATCA
